Source: PMC10668032
The list shows a part of the results. At the low end of the ranking, values are background and their order means little.

target: SIX1-Q177R homeodomain (UniProt Q15475); assay: universal protein binding microarray; conditions: Universal all-10-mer PBM (8x60K, AMADID 030236), 300 nM GST-tagged protein, Alexa Fluor 488 anti-GST; buffer, salt, pH and temperature not stated; high values mean tight binding; most listed sequences are background and not binding sites; double strand, one strand shown

Row | Sequence | binding signal [E-score]
1 | CCACGATA | -0.0696
2 | CAACTGCA | -0.223
3 | ACCACGTG | 0.194
4 | AAGGATTG | -0.0352
5 | AGCACAAG | -0.246
6 | CCAGAGCC | -0.142
7 | ATCCTTAG | 0.161
8 | CGTAAGGC | -0.0824
9 | AATGCAGC | -0.324
10 | AAACATGA | -0.115
11 | AGCCCGCG | -0.0901
12 | GTTTAACA | 0.0476
13 | CAGCACAG | -0.0886
14 | GTACCAGA | 0.0666
15 | AGTCCCAG | -0.141
16 | AAGTGCCA | 0.0942
17 | CAGTGCAA | 0.0576
18 | AGCGGCGC | -0.0366
19 | CCACGCGG | -0.147
20 | CCTGGCAA | -0.0799
21 | ATCACTAA | 0.00347
22 | CATTCGCA | -0.102
23 | ATCCTGTA | -0.0936
24 | AGTAGTCC | -0.141
25 | ACTACAAG | 0.025

Row | Sequence | binding signal [E-score]
26 | GGTATATA | 0.191
27 | CCCAGACC | -0.009
28 | ATTTTGCC | -0.132
29 | TATGGACA | 0.167
30 | GCTTATAA | -0.286
31 | TAATTTAA | -0.0893
32 | AATCAATC | 0.00158
33 | CCAGATGC | -0.0185
34 | ACGTTACG | -0.168
35 | ACCGGAAG | -0.0455
36 | GCTCGTCA | -0.0289
37 | CAGTTGAA | -0.0659
38 | AAGGGCAG | -0.185
39 | ATGTCCGC | -0.206
40 | ATATCCTG | 0.142
41 | AAATCATT | -0.264
42 | TCATATCA | -0.109
43 | ATGGGCTA | -0.16
44 | ACCCCGAT | 0.229
45 | CAGATGGG | -0.105
46 | GCGCGTGA | -0.0383
47 | ACGAAGTG | 0.0901
48 | GGCCTGCA | -0.217
49 | TGGCGTAA | 0.0397
50 | ATGGCTCA | -0.136

Row | Sequence | binding signal [E-score]
51 | ACCAGCGG | 0.0195
52 | CCTGGGCA | -0.0856
53 | GGGGACAC | 0.41
54 | CTCCTTAC | 0.0451
55 | AGGACATC | -0.254
56 | AGAGCTAA | -0.27
57 | AAACTCGC | -0.104
58 | CGTAGGTA | 0.209
59 | GCGTGTTA | 0.387
60 | GAGGCGCA | -0.0558
61 | TAATCCCA | 0.119
62 | AGACGAAT | -0.152
63 | GCTAGGAC | 0.0111
64 | AATACTGG | 0.0782
65 | CAATATTA | -0.0679
66 | CACAGAGA | 0.011
67 | CCAGCAGA | -0.101
68 | TAAGTGTA | 0.373
69 | ACTCAATC | 0.0646
70 | ATGTTTGA | -0.32
71 | AGCAATAA | -0.32
72 | CCTGGCGC | -0.13
73 | GATCTCCC | 0.0071
74 | ACCGTGAT | 0.0595
75 | GATAGGCC | -0.137

Row | Sequence | binding signal [E-score]
76 | AACGAGTC | -0.0912
77 | ATCATCGC | -0.208
78 | ATCACTAC | -0.0323
79 | CGAGACGA | -0.0076
80 | AAGCGAGT | 0.124
81 | AGGCGCAA | -0.189
82 | GGTAAACC | -0.0198
83 | CTGCAACA | 0.0909
84 | AGCAGAAA | -0.158
85 | AGTGCGAA | -0.0812
86 | CAGTACAC | 0.433
87 | GTAAGGGA | 0.0919
88 | ACGGTGTC | 0.488
89 | ACGAACCG | -0.0227
90 | AACAACCG | -0.179
91 | CCGGTGGC | 0.0915
92 | GAATAACA | 0.151
93 | CGGCTCAG | -0.0611
94 | GGCCTTCA | -0.097
95 | ACTGAGAA | -0.11
96 | AAAGGGGT | 0.162
97 | TATTTTAA | -0.104
98 | AAGCAACT | -0.206
99 | CTTCATAA | -0.222
100 | ACAATCGA | -0.247

Row | Sequence | binding signal [E-score]
101 | CCTGTTTA | -0.107
102 | ATACGACA | 0.18
103 | ACCAAAGC | -0.0868
104 | ATCGGCTA | -0.0549
105 | GATCTCGA | -0.119
106 | CGGTATGC | -0.149
107 | GGATATAC | 0.0751
108 | ACAGCTGC | -0.279
109 | AACAGTAT | -0.283
110 | GTATCAGA | 0.284
111 | GATACCAA | 0.263
112 | ACCACTAT | -0.028
113 | ATTGGAAG | -0.139
114 | AGATCCCT | 0.0983
115 | CGCGGTAG | -0.087
116 | AATTACGG | -0.331
117 | AGTGTGTA | 0.285
118 | CGTATAAC | -0.109
119 | ATGGAGGA | -0.0217
120 | CGGGAGAG | 0.151
121 | CCTAACAC | 0.404
122 | AGTACAAC | -0.0102
123 | CAGGCGGG | 0.107
124 | GAATCTCC | -0.0498
125 | CCAGTACC | 0.184

Row | Sequence | binding signal [E-score]
126 | CTTCCTCC | -0.224
127 | AGTGTTCG | 0.369
128 | TTAGGGAA | -0.125
129 | ACGTGAGG | 0.053
130 | GGCACTCA | -0.0534
131 | AAGGGAGT | 0.181
132 | CTTATGTC | -0.0544
133 | GCCGCGCC | -0.136
134 | ACCATTAA | -0.0164
135 | CCGTAAAA | -0.127
136 | AGCTCGCG | -0.224
137 | ACGCGTGC | 0.0289
138 | AATCGATC | -0.184
139 | GCACTGGC | 0.12
140 | AAAGCAAT | 0.15
141 | ATGAGACC | 0.134
142 | AGAACGGA | 0.142
143 | GTGGTCAA | -0.272
144 | AGTCTAGG | -0.138
145 | CATTGCTA | -0.268
146 | AAACTTGG | -0.0654
147 | AGAGACGA | 0.0597
148 | TTGCAAAA | -0.291
149 | GCGTCAGC | 0.0683
150 | AATACAGC | -0.249

Row | Sequence | binding signal [E-score]
151 | CTGAACAG | -0.208
152 | CGAGGTAG | -0.0624
153 | CAGGACTG | -0.192
154 | TCGGAAGA | 0.0788
155 | TCAAAAGA | -0.125
156 | CTTGCGAC | -0.0621
157 | GTATATAC | 0.143
158 | GACGTCGA | -0.191
159 | CTATTCTA | -0.0797
160 | GGAACAAC | -0.111
161 | ACCGCGCC | 0.0362
162 | ACTCAAAT | -0.224
163 | ACAGCTAG | 0.0937
164 | ATCACGCG | -0.165
165 | AAACGGTG | 0.308
166 | AACGCTTC | -0.207
167 | GAATGATA | -0.118
168 | GATAGGTA | 0.0405
169 | CCTATGTC | -0.186
170 | AGACGACC | 0.0419
171 | ATGAGATA | 0.0584
172 | AACGCATG | -0.243
173 | ACGAAGTC | -0.11
174 | ATAAGGCG | -0.00877
175 | TACTACGA | -0.0106

Row | Sequence | binding signal [E-score]
176 | TACGCGGA | 0.0998
177 | CCCTGGTC | -0.0681
178 | AAGAGCTG | 0.0167
179 | GCATAACC | 0.0771
180 | AGAGACAG | -0.162
181 | CATTGAGA | -0.232
182 | AGATTGTA | -0.166
183 | GGAGCAGA | -0.253
184 | CTTAATCC | -0.0606
185 | TTATGAAA | -0.0335
186 | ACTGCACC | 0.141
187 | AGCGCCAT | -0.128
188 | AGATCGTC | -0.0529
189 | ATTTTGGC | -0.192
190 | AGCTAATC | -0.333
191 | CCCGCTCG | 0.0873
192 | ATACCTGG | 0.0896
193 | CCCCGTAG | 0.11
194 | GCACAATA | -0.0336
195 | CCGCGGGC | -0.0196
196 | CAGCGACA | 0.105
197 | CACACAGG | 0.182
198 | GGGATGAC | -0.0267
199 | ATTCGACA | 0.163
200 | CCGGGAAG | -0.131

Row | Sequence | binding signal [E-score]
201 | AGGGTAAG | 0.152
202 | ACCGATGA | 0.105
203 | GGTTAGGA | 0.147
204 | GGCTCTGA | -0.21
205 | AGAGCCCC | -0.191
206 | AGCGAAGC | -0.124
207 | GAGGACCC | 0.0841
208 | CATCTGTC | -0.119
209 | CGAAGACG | -0.0924
210 | CTTTGGAA | -0.178
211 | AAATCCCG | -0.0304
212 | GGGTCACC | 0.14
213 | AAAAGCGG | -0.201
214 | TACTATGA | -0.0404
215 | CGGCGACC | -0.00942
216 | CTGACTGA | -0.2
217 | AAGATGGG | -0.0813
218 | GGCTGCGA | -0.203
219 | AGGTACTG | -0.172
